These results are taken from the supplement of paper PMC10126150.

Sequences with one replicate were seen in a single cluster, so their values are uncertain.

The subject of this data set is ATP. The data set is described as follows: switch fluorescence ratio, 500 uM ATP over buffer (Cy3 cluster intensity, sum of 5 cycles each) (fold (ratio)); higher = stronger signal-on switching upon ATP binding; sequences stand for … in TCGTCGGCAGCGTCAGATGTGTATAAGAGACAGTTTTTTTTTTTTTTTTTTTTTTTTT…TC. The note with it: aptamer strand: ATP DNA aptamer (quencher-CACCTGGGGGAGTATTGCGGAGGAAGG + anchor), 100 nM annealed; ATP concentration: 500 uM; one replicate. The procedure, abridged: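 Clusters with intensities outside 100-1000 RFU were excluded. The remaining Cy3-labelled switching-strand clusters on a modified Illumina MiSeq flow-cell had been annealed to 100 nM quencher-labelled ATP aptamer and imaged in selection buffer, then after 15 min with 500 uM ATP at 22 °C, for five cycles separated by NaOH stripping and re-annealing. The fluorescence ratio, averaged per switch-domain sequence, is each cluster's summed target-cycle Cy3 intensity over its summed buffer-cycle Cy3 intensity.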
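Further: ATP exposure 15 min at 22 °C before imaging.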

Regarding GGTCGCGCCC, the switch fluorescence ratio is 1.
Consider GATATCACTA, for which the switch fluorescence ratio stood at 1.01.
In the case of CCACTAACTT it was 1.15; in that of TGAAGTTTG, 0.971.
With GACGTACTGG, the switch fluorescence ratio came out at 1.32.
For the sequence GTTGACATGG, the switch fluorescence ratio worked out at 1.04.
Consider GATGAGTCCG, for which the switch fluorescence ratio turned out to be 1.17.
For TTAACAATGT, the switch fluorescence ratio came out at 1.01.
The result for CGCCATATGA reads 1.21; that for GGCACACCGA, 1.04.
For the sequence GTCATCCCG, the switch fluorescence ratio came to 0.987.
Regarding AGCATGGCCG, the switch fluorescence ratio stood at 1.06.
Regarding CCATAATTTC, the switch fluorescence ratio was 1.05.
On to TGCAGGAGGC, for which the switch fluorescence ratio is 1.08.
Consider ATGGGTTGAA, for which the switch fluorescence ratio was found to be 0.992.
For TCCGGCTCTC, the switch fluorescence ratio is 1.1.
As for GGCAATCTGA, the switch fluorescence ratio came out at 1.1.
The result for CATCTCCGAC reads 1.83.
Regarding ACGCCGGAGT, the switch fluorescence ratio was found to be 1.03.
Consider GGCTGTGTCG, for which the switch fluorescence ratio was found to be 0.952.
As for TCCTAGCTGC, the switch fluorescence ratio is 1.88.
Turning to ACCTTGCATC, the switch fluorescence ratio turned out to be 1.35.
Take TATATGCGAA: the switch fluorescence ratio is 0.997.
The result for TGGTCAGCCG reads 1.06.
On to AGTCGTGGTA, for which the switch fluorescence ratio was determined as 0.993.
Turning to GCGGCGTCGG, the switch fluorescence ratio came out at 0.973.
As to AGCGATCAAA, the switch fluorescence ratio was found to be 1.03.
For the sequence TCATAGTACT, the switch fluorescence ratio is 1.02.
For the sequence TTGCAATGGG, the switch fluorescence ratio came out at 1.16.
In the case of TGATCTACGT it was 1.02; in that of TAAATTACCA, 1.03.
As for TGCGTTTTGA, the switch fluorescence ratio worked out at 0.951.
On to GGCATATTTG, for which the switch fluorescence ratio was 1.02.
The result for GCTCTAGCCT reads 1.01; that for AATTAGCATT, 1.04.
For the sequence CTTGGCAGT, the switch fluorescence ratio stood at 1.09.
Consider GTAATATGGT, for which the switch fluorescence ratio was 0.991.
On to AAGGGACGTA, for which the switch fluorescence ratio worked out at 1.01.
Take CAGTAACTTG: the switch fluorescence ratio was 1.02.
Consider GGCTC, for which the switch fluorescence ratio is 0.943.
In the case of ATTTTAGCAG it was 1.01; in that of ATGTATCAGA, 1.01.
In the case of CCGTAAGGCG it was 1.02; in that of CGGGAAACGC, 1.03; in that of CGCTCTGACT, 1.03.
GAACTTTCGG: the switch fluorescence ratio turned out to be 0.997.
For CCCTGTACAC, the switch fluorescence ratio was determined as 1.33.
As for TTAACTTGGT, the switch fluorescence ratio was 0.982.
For TATGGTCACG, the switch fluorescence ratio was 1.
The result for CAAATAGCCG reads 1.14; that for TTGACCCCAG, 0.979.
With GGGTTATTCG, the switch fluorescence ratio worked out at 1.
The result for CTAGTCGGAT reads 1.05; that for ATTATTGGAC, 1.03.
The result for CATTGGGATC reads 1.03; that for GCCGGTGTTG, 0.983.
With AAGGTCATG, the switch fluorescence ratio was found to be 0.958.
TGGCCGATAA: the switch fluorescence ratio came out at 1.11.
For ACTTTGACCC, the switch fluorescence ratio came out at 1.13.
As to GTGACTTGG, the switch fluorescence ratio stood at 0.99.
In the case of CTGGCCGGCA, the switch fluorescence ratio was 0.998.
For CGGTCAAATG, the switch fluorescence ratio worked out at 1.
For GGTCGGAATT, the switch fluorescence ratio worked out at 0.977.
In the case of TTGATATGTG it was 0.962.
In the case of CTGCTAGAGG it was 1.
In the case of AATTTAAACA, the switch fluorescence ratio amounted to 1.
Consider GTTGGTATGG, for which the switch fluorescence ratio worked out at 1.01.
